Measurements reported in patent US9200045B2, “Small molecule-dependent inteins and uses thereof” (President and Fellows of Harvard College, priority 2011, dated 2015).

Test system: mCherry
Assay: 4-HT-dependent intein splicing in the mCherry context in HEK293 cells
Type: cell-based, human
Settings: HEK293, 37° C., 1 μM 4-HT
Source text: p3XFlag-CMV-14 (Sigma) vectors with Gli1-intein (2-4 and 3-2), and Gli3T-intein (2-4 and 3-2) sequences were previously described (Yuen et al., 2006). p3XFlag-CMV-14 mCherry-intein (2-4 and 3-2) vectors were constructed by cloning the 2-4 and 3-2 intein sequences into the pRSET-B mCherry vector provided by Professor Roger Tsien (University of California at San Diego). The mCherry-intein 2-4 and mCherry-intein 3-2 sequences were then amplified using oligonucleotides introducing a 5′ EcoRI site and a 3′ BamHI site and ligated into EcoRI- and BamHI-digested p3XFlag-CMV-14 vector. 30R3-1 intein sequence and 37R3-2 intein sequence were amplified using the following oligonucleotides compatible with mCherry, Gli1, or Gli3 contexts.
HEK293 cells were grown in 10 cm dishes or 6-well plates and transfected with relevant mammalian vectors using Effectene. After growth in the absence of 4-HT or in the presence of 1 μM 4-HT for 24 hours, cells were trypsinized and resuspended in 500 μL of phosphate buffered saline with 1% FBS and 75 U/mL DNase (New England Biolabs). Cell fluorescence analysis was carried out on a BD LSRII cell analyzer.

B1: 30R3-1: evolved 4-HT-dependent intein (RecA intein with estrogen receptor ligand-binding domain), clone from 30° C. evolution, Round 3 (protein)
chain: CLAEGTRIFDPVTGTTHRIEDVVDGRKPIHVVAAAKDGTLLARPVVSWFDQGTRDVIGLRIAGGATVWATPDHKVLTEYGWRAAGELRKGDRVAGPGGSGNSLALSLTADQMVSALLDAEPPIPYSEYDPTSPFSEASMMGLLTNLADRELVHMINWAKRVPGFVDLTLHDQAHLLECAWLEILMIGLVWRSMEHPGKLLFAPNLLLDRNQGKCVEGMVEIFDMLLATSSRFRMMNLQGEEFVCLKSIILLNSGVYTFLSSTLKSLEEKDHIHRALDKITDTLIHLMAKAGLTLQQQHQRLAQLLLILSHIRHMSNKGMEHLYSMKYKNVVPLYDLLLEMLDAHRLHAGGSGASRVQAFADALDDKFLHDMLAEGLRYSVIREVLPTRRARTFDLEVEELHTLVAEGVVVHNC
spliced mCherry protein (after 12 hours): 33% | spliced mCherry protein (after 24 hours): 54%
